# The antibiotic and cytotoxicity screens of Wong et al. (2023)
# The other results are listed elsewhere or left out.
# Test system: HSkMC (human skeletal muscle cells)
# Test: cytotoxicity call (relative viability < 0.9)
# Conditions: 10 µM
row,SMILES,cytotoxicity call
1,C[C@H](CO)N1C[C@H](C)[C@H](CN(C)S(=O)(=O)c2ccc(Cl)cc2)Oc2ccc(NC(=O)Cn3cnnn3)cc2C1=O,inactive
2,CC(C)(O)C#Cc1ccc([C@H]2[C@@H](CO)N3CCCCN(S(C)(=O)=O)C[C@@H]23)cc1,inactive
3,O=C(O)c1n[nH]c2c1CCCC2,inactive
4,O=C(Nc1ccc(Oc2ccc(Cl)cc2)c(Cl)c1)c1cc(I)cc(I)c1O,active
5,Cc1noc(C)c1NC(=O)N(C)C[C@@H]1OCCCC[C@@H](C)Oc2ccc(NC(=O)Cc3ccccc3)cc2C(=O)N([C@@H](C)CO)C[C@H]1C,inactive
6,O=C(C[C@@H]1CC[C@@H]2[C@H](COC[C@H](O)CN2C(=O)C2CC2)O1)NCc1ccncc1,inactive
7,CN(C)C(=O)C[C@H]1CC[C@@H](NC(=O)C2CC2)[C@@H](CO)O1,inactive
8,COc1ccc(S(=O)(=O)N(C)C[C@@H]2Oc3c(NS(=O)(=O)c4ccc(F)cc4)cccc3C(=O)N([C@H](C)CO)C[C@@H]2C)cc1,inactive
